Results: patent US6001810A, “Methods for treating retroviral infection” (Eli Lilly and Company, priority 1990, dated 1999)
Converted amounts (≈) assume the structure as drawn. Part of at least one peptide drawing is inferred or uncertain, most often the ends. Non-standard residues stand in square brackets, D forms with d. Residues, ends and D or L forms follow the SMILES beside them. 1Nal = N[C@@H](Cc1cccc2ccccc12)C(=O)O; Sta = CC(C)C[C@H](N)[C@@H](O)CC(=O)O

Key:
HIV-1 protease = biological target: T1, HIV-1 protease (Human immunodeficiency virus type 1 group M subtype B, UniProt P04585); test: HIV-1 protease inhibition assay (gag precursor maturation, Western blot); format: biochemical; conditions: for Relative Inhibition of HIV-1 Protease Activity (10^-4 M): peptide concentration added 10^-4 M; for Relative Inhibition of HIV-1 Protease Activity (10^-5 M): peptide concentration added 10^-5 M; for Relative Inhibition of HIV-1 Protease Activity (10^-6 M): peptide concentration added 10^-6 M
T1 construct: a gene encoding the mature HIV-1 protease of 99 amino acids; last 58 codons of bovine growth hormone, fused behind the first 144 amino acids of reverse transcriptase in the expressed precursor (C); made in house; host or cells: Escherichia coli K12 L507/pHP10D (NRRL B-18560), crude lysate
Method: A 100 μl control reaction was established containing 10 to 20 μl of crude protease, about 2 μl of the gag supernatant and final concentrations of 50 mM MES Buffer (pH 5.5), 1 mM DTT and 25 mM NaCl. Inhibition assays were performed by pre-incubating the crude protease with an inhibitory compound at room temperature for about 30 minutes before adding the gag supernatant to the reaction. Both the control and the experimental reactions were incubated from three to sixteen hours at 37° C. The reactions were then electrophoresed and blotted onto nitrocellulose filters. Monoclonal antibodies which recognize epitopes on p24 and p17 viral proteins were contacted with the filter then visualized using standard biotinylation or radionuclear techniques. Compounds which prevented the maturation of the gag polypeptide into mature viral proteins p24 and p17 were then ranked according to their HIV-1 protease inhibitory activity.
About 10 to 20 μl of the crude protease lysate was mixed with about 2 μl of the gag supernatant. The mixture was then brought to a total volume of 100 μl by the addition of distilled water, MES buffer (2-[N-Morpholino]ethanesulfonic acid) (pH 5.5 to a total concentration of 50 mM), DTT (dithiolthreitol) (to a total concentration of 1 mM) and NaCl (to a total concentration of 25 mM). This reaction mixture was mixed gently then incubated from 3 hours to overnight at 37° C.
Next, about 25 μl of the reaction was mixed with loading buffer and subjected to polyacrylamide gel electrophoresis on a 12.5% Laemmli gel under reducing conditions. The proteins were transferred onto a nitrocellulose filter using standard "Western Blot" electrophoresis at 500 mAmps for 35 minutes at room temperature. The filter was air-dried, then non-specific immunoreaction was blocked by washing the filter for 30 minutes at 4° C. in a solution of 3% non-fat dry milk powder in phosphate buffered saline (PBS).
Monoclonal antibodies against p17 and/or p24 (available from DuPont, Wilmington, Del.) were added to about 40 ml of the 3% milk/PBS solution to a final concentration of 2 μg/ml. The nitrocellulose filter was added to the antisera solution and slowly rocked for 2 hours at 4° C. The filter then was removed and washed 5 times with PBS, then the maturation of the gag gene was determined by reaction with I^125 -labeled protein A or by reaction with biotinylated anti-mouse IgG antibodies (Vecta Stain®).
To run the I^125 -labeled protein A reaction, about 10 μCi of I^125 -labeled protein A was added to 100 ml of the 3% milk/PBS solution. The filter was rocked in this solution for 2 hours at 4° C., washed three times with PBS, then two times with PBS and 0.1% Tween 20. The filter was then air-dried and exposed to x-ray film for autoradiography.
The Vecta Stain® (Vector Laboratories, Burlingome, Calif.) procedure was performed according to the manufacturer's recommendations. Four drops of the biotinylated IgG was added to 40 mls of the 3% Milk/PBS solution, then the filter was rocked in this solution for 60 minutes at 4° C. The filter was washed five times with PBS, then rocked for 30 to 60 minutes at 4° C. in Reagent ABC. Reagent ABC was prepared by adding 4 drops of Reagent A (Avidin DH) and 4 drops of Reagent B (biotinylated peroxidase) to 20 ml of 3% Milk/PBS. The filter was then washed five times with PBS, then the filter was developed by washing it for 5 to 10 minutes in 10 ml of PBS containing 0.02% H2 O2 and 10 ml of 4-chloro-1 naphthol. When the color was fully developed, the filter was washed with distilled water and air-dried.
Following the procedure, it is simple to determine the activity of the HIV-1 protease encoded on plasmid pHP10D and produced in E. coli cells. When the protease is fully active, the gag protein, encoded by plasmid pHGAG and produced in E. coli, is cleaved from the precursor gag form into mature p24 and p17 proteins, which are readily measured by their presence relative to the precursor protein. […]

[1] = tested on: HTLV-IIIB strain of HIV-1; test: Inhibition of HIV-1 cytopathic effect in CEM cells (XTT); format: cell-based; conditions: Table V
Method: Quantitative evaluation of the viral inhibition were performed on the T-cell lymphoblastoid cell lines MT-2 (Harada et al., 1985, Science 229:563-566) and CEM (Nara and Fischinger, 1988, Nature 332:469-470). The cells were infected with the HTLV-IIIB strain of HIV-1 from the supernatant fluid of infected human T-lymphocyte cell line H9 (Popovic, M. et al., 1984, Science 224:497-500). Each of these three cell lines are publicly available from the National Institutes of Health (NIH) AIDS Research and Reference Reagent Program. The H9/HTLC-IIIB cell line is available under catalogue number 231, while CEM cell line is available under catalogue number 117 and the MT-2 cell line is available under the catalogue number 237. MT-2 and CEM cells were grown in RPMI 1640 medium supplemented with 10% (v/v) fetal calf serum, 100 U/ml penicillin, 100 μg/ml streptomycin and 25 mM HEPEs buffer. H9 cells were grown in the same medium except 20% fetal calf serum was used. The peptides were diluted in the medium used for MT-2 and CEM cells. Cell cultures were maintained in disposable tissue culture labware at 37° C. in a humidified atmosphere of 5% CO2 in air.
The inhibitors were dissolved in DMSO at 40 mg/ml or sterile water at 2 mg/ml, then dilutions were made in medium. The dilutions were added to micro-titer plates in 100 μl/well aliquots so that the high drug concentration for each screen was 100 μg/ml after the addition of cells to the well.
Susceptible MT-2 and CEM cells were grown and the cell population determined by a trypan blue viable cell count. The desired total number of cells were placed in a sterile, disposable 50 ml conical centrifuge tube and virus was added to give an MOI (Multiplicity of Infection) of 0.03 TCID50 /cell (Tissue Culture Infectious Dose) on MT-2 cells and approximately 0.12 TCID50 /cell on CEM cells. Fresh medium was added to adjust the cell density to 1×10^5 cells/ml, then the virus-cell suspension was incubated at 37° C. for 1 to 2 hours until plating. Uninfected controls cell were prepared in the same manner but without the addition of virus. Infected and uninfected cells were added to plates in 100 μl/well aliquots to give a starting cell number of 1×10^4 cells/well. The plates were incubated for seven days in a humidified atmosphere of 5% CO2 in air.
Reagents for colorimetric evaluation of cell viability were prepared by mixing the tetrazolium reagent, XTT, and phenazine methosulfate (PMS) to final concentrations of 200 μg/ml and 0.02 mM, respectively. Fifty microliters of the XTT-PMS solution was added to each well of the microtiter plates, then the plates were incubated in the CO2 incubator for another four hours. The lids were removed from the plates and replaced with adhesive plate sealers. The plates were read with the sealers in place in a Vmax Plate Reader® at 450 nm and 650 nm. The cytopathic effect (CPE) and percentage of cell viability were then calculated.
The activity and cytotoxicity of several other peptides were also assayed in CEM cells using the same procedure as described above. These assays also included toxicity and activity levels of both 25% and 50%.

Row | Structure (SMILES) | Relative Inhibition of HIV-1 Protease Activity (10^-4 M) (HIV-1 protease) | Relative Inhibition of HIV-1 Protease Activity (10^-5 M) (HIV-1 protease) | Relative Inhibition of HIV-1 Protease Activity (10^-6 M) (HIV-1 protease) | IC50 (concentration that reduced CPE by 50%) [1] [µg/mL] | Potency as protease inhibitor relative to P-7 (HIV-1 protease; compared with P-7)
1 | CC(=O)N[C@@H](Cc1ccc(O)cc1)C(=O)N1CCC[C@H]1C(=O)N[C@@H](Cc1ccccc1)C(=O)N[C@H](C(=O)N[C@@H](CC(C)C)[C@@H](O)CC(=O)N[C@@H](CC(C)C)C(=O)N[C@@H](Cc1ccccc1)C(N)=O)C(C)C [P-5, Ac Tyr Pro Phe Val Statine Leu Phe NH2] (Ac-YPFV[Sta]LF-NH2) | 3+ | 2+ | - | 6.14 (≈ 6.24 µM) | 
2 | CC(=O)N[C@@H](Cc1cccc2ccccc12)C(=O)N1CCC[C@H]1C(=O)N[C@@H](Cc1ccccc1)C(=O)N[C@H](C(=O)N[C@@H](CC(C)C)[C@@H](O)CC(=O)N[C@@H](CC(C)C)C(=O)N[C@@H](Cc1ccccc1)C(N)=O)C(C)C [P-7, Ac NA Pro Phe Val Statine Leu Phe NH2] (Ac-[1Nal]PFV[Sta]LF-NH2) | 4+ | 3+ |  | 1.55 (≈ 1.52 µM) | 
3 | CC(=O)N[C@@H](Cc1c[nH]c2ccccc12)C(=O)N1CCC[C@H]1C(=O)N[C@@H](Cc1ccccc1)C(=O)N[C@H](C(=O)N[C@@H](CC(C)C)[C@@H](O)CC(=O)N[C@@H](CC(C)C)C(=O)N[C@@H](Cc1ccccc1)C(N)=O)C(C)C [P-8, Ac Trp Pro Phe Val Statine Leu Phe NH2] (Ac-WPFV[Sta]LF-NH2) | 3+ | 2+ | 1+ | 1.84 (≈ 1.83 µM) | 
4 | COc1ccc(C[C@H](NC(C)=O)C(=O)N2CCC[C@H]2C(=O)N[C@@H](Cc2ccccc2)C(=O)N[C@H](C(=O)N[C@@H](CC(C)C)[C@@H](O)CC(=O)N[C@@H](CC(C)C)C(=O)N[C@@H](Cc2ccccc2)C(N)=O)C(C)C)cc1 [P-9, Ac YOM Pro Phe Val Statine Leu Phe NH2] (Ac-Y(Me)PFV[Sta]LF-NH2) | 4+ | 4+ | 3+ | 12.0 (≈ 12 µM) | three to four times
5 | CC(=O)N[C@@H](Cc1ccccc1)C(=O)N1CCC[C@H]1C(=O)N[C@@H](Cc1ccccc1)C(=O)N[C@H](C(=O)N[C@@H](CC(C)C)[C@@H](O)CC(=O)N[C@@H](CC(C)C)C(=O)N[C@@H](Cc1ccccc1)C(N)=O)C(C)C [P-10, Ac Phe Pro Phe Val Statine Leu Phe NH2] (Ac-FPFV[Sta]LF-NH2) | 3+ | 2+ | 1+ | 1.15 (≈ 1.19 µM) | 
